Test results taken from paper PMC4336329 (PLoS ONE, 2015).
In all, about 310,000 compounds went through this assay and about 14,000 (4.5%) showed an effect of 50% or more. The effect is printed as a negative number. The list shows a part of the results.

Target: human ether-à-go-go-related gene (hERG) potassium channel (human, UniProt Q12809)
Experiment: primary screen, population patch clamp on CHO cells stably expressing hERG
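Also: peak tail current of the secondary pulse compared with the same well before compound.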

Sequence of human ether-à-go-go-related gene (hERG) potassium channel (Q12809 whole entry, looked up): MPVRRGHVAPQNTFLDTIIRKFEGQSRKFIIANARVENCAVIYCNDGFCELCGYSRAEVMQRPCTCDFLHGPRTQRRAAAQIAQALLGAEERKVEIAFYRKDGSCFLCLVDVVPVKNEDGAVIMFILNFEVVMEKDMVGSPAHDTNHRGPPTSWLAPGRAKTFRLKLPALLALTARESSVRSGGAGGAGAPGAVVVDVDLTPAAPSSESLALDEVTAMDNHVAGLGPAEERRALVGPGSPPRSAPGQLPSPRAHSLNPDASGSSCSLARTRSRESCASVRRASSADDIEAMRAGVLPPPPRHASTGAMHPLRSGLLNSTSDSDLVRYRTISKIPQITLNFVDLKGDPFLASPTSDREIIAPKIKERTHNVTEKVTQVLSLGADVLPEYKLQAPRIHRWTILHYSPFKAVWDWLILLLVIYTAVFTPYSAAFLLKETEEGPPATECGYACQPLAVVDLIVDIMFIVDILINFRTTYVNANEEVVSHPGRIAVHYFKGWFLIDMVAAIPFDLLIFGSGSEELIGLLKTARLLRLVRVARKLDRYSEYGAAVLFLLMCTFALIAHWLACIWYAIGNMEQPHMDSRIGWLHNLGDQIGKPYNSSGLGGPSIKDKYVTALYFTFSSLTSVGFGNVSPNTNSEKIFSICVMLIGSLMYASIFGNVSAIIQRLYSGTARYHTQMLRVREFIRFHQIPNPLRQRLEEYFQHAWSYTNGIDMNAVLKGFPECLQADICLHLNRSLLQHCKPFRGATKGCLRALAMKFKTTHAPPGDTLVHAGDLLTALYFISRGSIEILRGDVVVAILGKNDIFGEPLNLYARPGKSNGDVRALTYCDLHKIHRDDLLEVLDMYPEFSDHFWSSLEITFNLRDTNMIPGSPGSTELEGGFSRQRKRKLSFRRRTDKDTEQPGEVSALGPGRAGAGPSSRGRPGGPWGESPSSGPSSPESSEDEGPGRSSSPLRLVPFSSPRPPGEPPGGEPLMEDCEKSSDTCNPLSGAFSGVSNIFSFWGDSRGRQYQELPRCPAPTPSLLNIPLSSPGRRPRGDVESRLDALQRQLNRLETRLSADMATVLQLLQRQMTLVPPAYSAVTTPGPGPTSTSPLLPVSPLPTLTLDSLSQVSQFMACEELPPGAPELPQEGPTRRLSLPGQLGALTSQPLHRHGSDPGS

| SMILES | hERG current change (%, negative = inhibition) at 10uM |
| --- | --- |
| COC(=O)[C@@]1(Cc2ccc(F)cc2)[C@H]2c3cc(C(=O)N(C)C)n(Cc4ccc(OC)c(OC)c4)c3C[C@H]2CN1C(=O)c1ccccc1 | -42.6% |
| CC(=O)Nc1ccc2c(c1)C(=O)c1ccccc1C2=O | 12.2% |
| COc1ccc(-c2nn(-c3ccccc3)cc2/C=N/O)cc1 | 5.13% |
| O=C(N/N=C/c1c(F)cccc1Cl)C(=O)N1CCCCCC1 | 8.16% |
| COc1ccc(C(=O)C2CCCN(C(=O)C3CCOCC3)C2)c(C)c1 (stereo not shown) | 27% |
| COc1cccc(/C=N/NC(=O)CC(=O)NCCc2ccc(OC)c(OC)c2)c1 | -11.9% |
| COC(=O)c1cc(NC(=O)CN2C(=O)C(=O)N(C3CCCC3)C2=O)cc(C(=O)OC)c1 | -8.81% |
| Cc1ccc(O)c(CN2CCN(c3ccccc3)CC2)c1 | -17.2% |
| CC1CC(=O)C=C(O)C1C(=O)OC(C)(C)C (stereo not shown) | 11.4% |
| Cc1sc(NC(=O)Cn2[nH]c(=O)c3ccccc3c2=O)nc1-c1ccccc1 | 11.6% |
| C=CCOc1ccc(CNn2c(C)n[nH]c2=S)cc1OC | 21.7% |
| CCn1c(Cc2cccs2)nnc1SCC(=O)Nc1ccc(OC)c(OC)c1 | 14.9% |
| Cc1ccc(-c2cc(C(=O)N/N=C/C=C/c3ccccc3)n[nH]2)o1 | -7.76% |
| CC(=O)N1c2ccc(S(=O)(=O)N3CCC(C(=O)NCc4ccccc4Cl)CC3)cc2CC1C (stereo not shown) | 8.4% |
| O=C(N/N=C/c1c[nH]c2ccccc12)c1ccncc1 | 9.13% |
| COc1ccc(C(CNC(=O)c2cccnc2SC)N2CCOCC2)cc1 (stereo not shown) | 1.56% |
| Cc1ccn2cc(-c3ccc(Br)cc3)nc2c1 | 11.7% |
| CCOC(=O)c1c2c3c(cccc3[nH]c1=O)C(=O)c1ccccc1-2 | 17.6% |
| CC(C)CC1=NC(C(F)(F)F)(C(F)(F)F)c2c(n(CC(C)C)c(=O)[nH]c2=O)N1 | 21.4% |
| CC(Sc1ncnc2sc(-c3ccccc3)cc12)C(=O)N1CCNC1=O (stereo not shown) | -11.4% |
| Cn1c(=O)[nH]c(=O)c2c1nc(Br)n2C/C=N/Nc1ccccc1 | -16.2% |
| CCCCCC(=O)Nc1ccc(Cc2ccncc2)cc1 | -28.6% |

| SMILES | hERG current change (%, negative = inhibition) at 10uM |
| --- | --- |
| O=C(c1cccc([N+](=O)[O-])c1)n1nc(-c2ccccc2)nc1NCc1ccccc1 | 9.75% |
| Nc1nc(-c2cccc(Br)c2)cs1 | 5.31% |
| C=CCOc1c(CNc2ccc3[nH]c(=O)[nH]c3c2)cccc1OC | 10.1% |
| COc1ccc(CCNC(=O)Cn2nnc(-c3cccc(OC)c3OC)n2)cc1OC | 6.69% |
| CC(=O)O/N=C/c1c(C)c(C=O)n2ccccc12 | 10.5% |
| CCOc1ccccc1/C=N/NC(=O)CNC(=O)COc1ccccc1 | 10.9% |
| COC1=C(C)C(O)=C(C(=O)/C=C/c2ccccc2)C(=O)C1(C)C | -11.2% |
| COc1ccc(/C=C(\C#N)C(=O)N2CCOCC2)cc1Br | -4.94% |
| COc1cc(/C=C/C(=O)O)ccc1OS(=O)(=O)c1ccc(C)cc1 | 5.39% |
| CN1CCN(CC(=O)Nc2ccc(Oc3ccccc3)cc2)CC1 | -47.5% |
| CN(CC(=O)N1CCN(c2ccc(F)cc2)CC1)S(=O)(=O)c1ccc2c(c1)c(=O)n(C)c(=O)n2C | -0.425% |
| COc1cccc(OCCNC(=O)c2cc([N+](=O)[O-])cc([N+](=O)[O-])c2)c1 | -28.2% |
| N/C(=N\OC(=O)CCc1ccccc1)c1ccc(Br)cc1 | 10.2% |
| COc1cc(Br)cc2cc(C(=O)N3CCN(c4ccccn4)CC3)c(=O)oc12 | -27.8% |
| O=[N+]([O-])c1ccc(CCn2ccnc2)cc1 | -5.64% |
| COc1ccc(C(=O)NCc2nnc(SCC(=O)N3CCc4ccccc43)o2)cc1OC | 13% |
| CCN1CCN(CCOCCOc2ccccc2-c2ccccc2)CC1.O=C(O)C(=O)O | -35.6% |
| Cc1cc2c(cc1C)NC(c1ccccn1)C1=C(CC(C)(C)CC1=O)N2 (stereo not shown) | 7.01% |
| O=C(NCCCn1ccnc1)C(=O)NCC(c1ccco1)N1CCN(c2ccccc2)CC1 (stereo not shown) | 1.01% |
| O=C(COC(=O)c1ccc([N+](=O)[O-])s1)NCc1ccc(F)cc1 | 19.5% |
| Cc1cc2cc(C=C(C#N)C#N)c(Cl)nc2cc1C | -30.7% |
| NC(Cc1c[nH]c2ccccc12)C(=O)NCc1ccccc1 (stereo not shown) | 13.8% |

| SMILES | hERG current change (%, negative = inhibition) at 10uM |
| --- | --- |
| O=S(=O)(c1cccs1)N1CCN(c2ccc(Cl)cc2)CC1 | 21.5% |
| Nc1ccc(Nc2ccccc2)c(Cl)c1 | -5.85% |
| COCCN(C(=O)C(F)(F)F)C(C(=O)NC1CCCCC1)c1ccco1 (stereo not shown) | 2.81% |
| CCC(=O)Nc1ccc(OCc2nc3ccccc3s2)cc1 | 21.1% |
| Cc1ccc(NC(=O)COC(=O)c2cc(=O)c3ccccc3o2)cc1F | 12.9% |
| O=C(CSc1nnc(CNC(=O)c2ccccc2F)o1)NCc1ccccc1 | -7.93% |
| Cc1ccc(/C(O)=C2\C(=O)C(=O)N(C)C2c2ccccc2[N+](=O)[O-])cc1 (stereo not shown) | 16.7% |
| O=C(NCCCN1CCCC1=O)c1ccc(Cl)c(NS(=O)(=O)c2ccc(F)cc2)c1 | 3.69% |
| CC1=NC(C)(C)Cc2ccccc21.O=C(O)c1ccccc1O | 22% |
| O=C(Nc1nc(-c2ccccc2)c(-c2ccccc2)s1)c1ccc(S(=O)(=O)N2CCCCC2)cc1 | 2.91% |
| CC(=O)c1ccc(COC(=O)c2cc3ccccc3oc2=O)cc1 | -9.26% |
| COc1ccc2nc(NC(=O)c3c(C)noc3C)sc2c1 | -34.3% |
| CCN(CC)CCCn1c(=S)[nH]c2cc(Cl)ccc2c1=O | -68.7% |
| CC(=O)c1ccc(NC(=O)CSc2nnc(-c3ccncc3)o2)cc1 | -12.9% |
| COc1ccc(NC2=C(C(C)=O)C(c3ccc(N(C)C)cc3)C(C(C)=O)C(C)(O)C2)cc1 (stereo not shown) | 9.08% |
| CC(C)OC(=O)Nc1ccc2c(c1)N(C(=O)CCN(C)C)c1ccccc1CC2.Cl | -20.8% |
| CN(C)/C=C(/C(=O)c1ccc(Cl)cc1Cl)S(=O)(=O)c1ccc(Cl)cc1 | -5.04% |
| COc1cc(NC(=O)c2cc(Cl)nnc2Cl)cc(OC)c1OC | -6.59% |
| CCOCC(=O)Nc1nc2ccc(S(C)(=O)=O)cc2s1 | -8.14% |
| Cc1ccccc1OCC(=O)NCCCNC(=O)c1ccncc1 | -5.1% |
| O=c1[nH]c(=S)n(-c2ccc(Cl)cc2)c(O)c1/C=N/N1CCOCC1 | -6.08% |
| COc1ccc(-c2cc(C(=O)N(C)CC(=O)Nc3cccc(F)c3)c3ccccc3n2)cc1 | -5.13% |

| SMILES | hERG current change (%, negative = inhibition) at 10uM |
| --- | --- |
| CCCC[n+]1ccc(-c2nc3ccc([N+](=O)[O-])cc3[nH]2)cc1 | -59.5% |
| CC1(C(=O)Nc2cccc3ccccc23)CC1(Br)Br (stereo not shown) | 0.448% |
| CC(NC(=S)NNS(=O)(=O)c1ccc(C(C)(C)C)cc1)c1ccccc1 (stereo not shown) | -11.2% |
| COc1ccc([N+](=O)[O-])cc1NC(=O)CCCOc1ccccc1 | 21.6% |
| CCOC(=O)c1cc(C#N)c(Oc2cccc(C(F)(F)F)c2)nc1-c1ccccc1 | -8.34% |
| Cc1cc(=O)n2nc(N3CCCC(C(=O)NCc4cccc(Br)c4)C3)sc2n1 (stereo not shown) | -30.2% |
| COc1ccc(OCCC(=O)N2CCCCC2)cc1 | 0.408% |
| CN1CCN(C(=O)C2CCC(CNS(=O)(=O)c3cccc4cccnc34)CC2)CC1 (stereo not shown) | 5.72% |
| CCC(Oc1ccccc1)C(=O)NC1CCSC1=O (stereo not shown) | 3.17% |
| O=C(O)CCCC(=O)N1CCN(c2cccc(Cl)c2)CC1 | 2.98% |
| N#Cc1cc2cc3c(cc2nc1SCC(=O)N1CCOCC1)OCO3 | 14.8% |
| Cc1ccc(C(=O)Oc2ccccc2N2C(=O)C3C4CCC(C4)C3C2=O)cc1 (stereo not shown) | 3.99% |
| CCOC(=O)c1ccc(S(=O)(=O)N2CCC(C(=O)NCc3ccccc3OC)CC2)cc1 | -22.5% |
| COc1ccc(C2NC(=O)c3ccccc3O2)cc1OC (stereo not shown) | 3.2% |
| Cc1cccnc1NC(=O)c1c(O)c2ccccc2n(C)c1=O | 11.9% |
| N#CC(c1ccc(=O)[nH]n1)c1ccc(Cl)cc1Cl (stereo not shown) | -5.22% |
| O=C(c1ccc2c(c1)C(=O)N(CCCO)C2=O)c1ccc2c(c1)C(=O)N(CCCO)C2=O | 5.74% |
| COc1cc(NC(=O)CSc2nc(C)c(C)c(C)n2)c(C)cc1[N+](=O)[O-] | 0.898% |
| CCc1ccc(NC(=S)N2CCCCCCC2)cc1 | -8.14% |
| CC(=O)NC(NC(=S)Nc1cccc(Br)c1)C(Cl)(Cl)Cl (stereo not shown) | -11.3% |
| O=C1CC(N2CCN(c3ccccc3)CC2)C(=O)N1c1cccc(Br)c1 (stereo not shown) | -1.92% |
| COc1ccc(OC)c(CCNC(=O)c2ccc(CS(=O)Cc3ccc(Cl)cc3)o2)c1 (stereo not shown) | -31% |
